The supplement of paper PMC8728848
The list shows a part of the results.

How the values were obtained:
Assay in all cases: glycan array binding signal (z-score within array); higher = stronger binding
Conditions in all cases: glycan notation: IUPAC condensed, linker removed
[1] = biological target: Gal6S(b1-4)Glc6S
Summary of the method: (§1)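 Arrays were curated from the Consortium for Functional Glycomics database, 3228 in total, and kept only where the protein sequence was available. Binding is expressed as a within-array Z-score. This score was averaged across arrays of the same protein sequence at different concentrations or buffers and across linkers, and negative values can be read as non-binding.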

[2] = biological target: Gal6S(b1-4)GlcNAc
Summary of the method: as §1

[3] = biological target: Gal6S(b1-4)GlcNAc6S
Summary of the method: as §1

[4] = biological target: GalNAc(a1-3)Gal
Summary of the method: as §1

[5] = biological target: GalNAc(a1-3)GalNAc
Summary of the method: as §1

[6] = biological target: GalNAc(a1-3)GalNAc(b1-3)Gal(a1-4)Gal(b1-4)Glc
Summary of the method: as §1

[7] = biological target: GalNAc(a1-3)GalNAc(b1-3)Gal(a1-4)Gal(b1-4)GlcNAc
Summary of the method: as §1

[8] = biological target: GalNAc(b1-3)Gal
Summary of the method: as §1

[9] = biological target: GalNAc(b1-3)Gal(a1-4)Gal(b1-4)GlcNAc
Summary of the method: as §1

[10] = biological target: GalNAc(b1-3)Gal(a1-4)Gal(b1-4)GlcNAc(b1-3)Gal(b1-4)Glc
Summary of the method: as §1

[11] = biological target: GalNAc(b1-3)Gal(a1-6)Gal(b1-4)Glc
Summary of the method: as §1

[12] = biological target: GalNAc(b1-3)GalNAc
Summary of the method: as §1

[13] = biological target: GalNAc(b1-3)GlcNAc
Summary of the method: as §1

[14] = biological target: GalNAc(b1-4)Gal(b1-4)Glc
Summary of the method: as §1

[15] = biological target: GalNAc(b1-4)GlcNAc
Summary of the method: as §1

[16] = biological target: GalNAc(b1-4)GlcNAc(b1-2)Man
Summary of the method: as §1

[17] = biological target: GalNAc(b1-4)GlcNAc(b1-2)Man(a1-3)[GalNAc(b1-4)GlcNAc(b1-2)Man(a1-6)]Man(b1-4)GlcNAc(b1-4)GlcNAc
Summary of the method: as §1

[18] = biological target: GalNAc(b1-4)GlcNAc(b1-3)GalNAc(b1-4)GlcNAc
Summary of the method: as §1

[19] = biological target: GalNAc(b1-4)GlcNAc6S
Summary of the method: as §1

[20] = biological target: GalNAc(b1-6)GalNAc
Summary of the method: as §1

[21] = biological target: GalNAc3S(b1-4)GlcNAc
Summary of the method: as §1

[22] = biological target: GalNAc3S(b1-4)GlcNAc3S
Summary of the method: as §1

[23] = biological target: GalNAc3S(b1-4)[Fuc(a1-3)]GlcNAc
Summary of the method: as §1

[24] = biological target: GalNAc4S6S(b1-4)GlcNAc
Summary of the method: as §1

[25] = biological target: GalNAc6S(b1-4)GlcNAc
Summary of the method: as §1

[26] = biological target: Glc(a1-4)Glc
Summary of the method: as §1

[27] = biological target: Glc(a1-4)Glc(a1-4)Glc(a1-4)Glc
Summary of the method: as §1

[28] = biological target: Glc(a1-6)Glc(a1-6)Glc
Summary of the method: as §1

[29] = biological target: Glc(a1-6)Glc(a1-6)Glc(a1-6)Glc
Summary of the method: as §1

[30] = biological target: Glc(b1-4)Glc
Summary of the method: as §1

[31] = biological target: Glc(b1-6)Glc
Summary of the method: as §1

[32] = biological target: GlcA(b1-3)Gal
Summary of the method: as §1

[33] = biological target: GlcA(b1-3)GlcNAc
Summary of the method: as §1

[34] = biological target: GlcA(b1-6)Gal
Summary of the method: as §1

[35] = biological target: GlcA3S(b1-3)Gal(b1-4)GlcNAc(b1-2)Man
Summary of the method: as §1

[36] = biological target: GlcA3S(b1-3)Gal(b1-4)GlcNAc(b1-3)Gal(b1-4)Glc
Summary of the method: as §1

[37] = biological target: GlcNAc(a1-3)Gal(b1-4)GlcNAc
Summary of the method: as §1

[38] = biological target: GlcNAc(a1-4)Gal(b1-3)GlcNAc
Summary of the method: as §1

[39] = biological target: GlcNAc(a1-4)Gal(b1-4)GalNAc
Summary of the method: as §1

[40] = biological target: GlcNAc(a1-4)Gal(b1-4)GlcNAc
Summary of the method: as §1

[41] = biological target: GlcNAc(a1-4)Gal(b1-4)GlcNAc(b1-3)Gal(b1-4)Glc
Summary of the method: as §1

[42] = biological target: GlcNAc(a1-4)Gal(b1-4)GlcNAc(b1-3)Gal(b1-4)GlcNAc
Summary of the method: as §1

[43] = biological target: GlcNAc(a1-4)Gal(b1-4)GlcNAc(b1-3)Gal(b1-4)GlcNAc(b1-3)Gal(b1-4)GlcNAc
Summary of the method: as §1

[44] = biological target: GlcNAc(a1-4)Gal(b1-4)GlcNAc(b1-3)Gal(b1-4)[Fuc(a1-3)]GlcNAc(b1-3)Gal(b1-4)[Fuc(a1-3)]GlcNAc
Summary of the method: as §1

[45] = biological target: GlcNAc(a1-6)Gal(b1-4)GlcNAc
Summary of the method: as §1

B1: PX9961H-bth-557-24-557 (Bacteroides thetaiotaomicron) (protein)
chain: EETRTEVEKKNYMNNAEEAKDVLLGVYRTNTLDAMYGYYLSILFNLGTDISQVEGSGNENFRIIPTNSFPTTQSEVQQTWAALYTGIYRANDFLERISNKIGSYTTTDKKLATLYIAEARALRGMFYFELVRRFGNVVLMTSTQMSNQNPATYVQSAPEKVYEYIEDDLLYACDILPYATDDQYRESNDYRFSKGAALGLLTKVYATWAGYPVKDESKWEAAAKTARILVESGKHGLLKDYEQLWKNTCNGTWDPTESLIEISFYSPTVSGNSDPVGRIGKWNGVKTTAIAGVRGSCAANVKVVHTFVLDWREDVSDIRRDLSIANYQYTDTKKSLWVAGASDTDESAAEKDADPTKAQKNKQNYTPAKWDIQKYVTTNSFINNDKSNVNWYFLRYADVLLLYAEALNEWKHGPDAEAYNAINAVRRRGYGNPSNTSACDLPQGLDETSFREAVRKERSYELSFEGHRRQDLIRWGIYYKTVQATAKELGYWWEGTGSPNYSVATYTEEGKHELFPIPQRDMDLCIQFNQNPKW
glycan array binding signal (z-score) [1]: 0.304
glycan array binding signal (z-score) [2]: -0.033
glycan array binding signal (z-score) [3]: -0.62
glycan array binding signal (z-score) [4]: 1.77
glycan array binding signal (z-score) [5]: 0.123
glycan array binding signal (z-score) [6]: -0.566
glycan array binding signal (z-score) [7]: -0.082
glycan array binding signal (z-score) [8]: 0.096
glycan array binding signal (z-score) [9]: -0.163
glycan array binding signal (z-score) [10]: -0.359
glycan array binding signal (z-score) [11]: -0.266
glycan array binding signal (z-score) [12]: -0.1
glycan array binding signal (z-score) [13]: -0.542
glycan array binding signal (z-score) [14]: -0.26
glycan array binding signal (z-score) [15]: 0.014
glycan array binding signal (z-score) [16]: -0.524
glycan array binding signal (z-score) [17]: 1.86
glycan array binding signal (z-score) [18]: 2.1
glycan array binding signal (z-score) [19]: -0.11
glycan array binding signal (z-score) [20]: -0.526
glycan array binding signal (z-score) [21]: -0.539
glycan array binding signal (z-score) [22]: -0.316
glycan array binding signal (z-score) [23]: -0.317
glycan array binding signal (z-score) [24]: -0.391
glycan array binding signal (z-score) [25]: 0.123
glycan array binding signal (z-score) [26]: -0.332
glycan array binding signal (z-score) [27]: -0.637
glycan array binding signal (z-score) [28]: -0.402
glycan array binding signal (z-score) [29]: -0.44
glycan array binding signal (z-score) [30]: -0.097
glycan array binding signal (z-score) [31]: -0.114
glycan array binding signal (z-score) [32]: -0.564
glycan array binding signal (z-score) [33]: -0.211
glycan array binding signal (z-score) [34]: 0.07
glycan array binding signal (z-score) [35]: -0.264
glycan array binding signal (z-score) [36]: -0.19
glycan array binding signal (z-score) [37]: -0.289
glycan array binding signal (z-score) [38]: 0.11
glycan array binding signal (z-score) [39]: -0.564
glycan array binding signal (z-score) [40]: -0.467
glycan array binding signal (z-score) [41]: -0.546
glycan array binding signal (z-score) [42]: -0.754
glycan array binding signal (z-score) [43]: 0.118
glycan array binding signal (z-score) [44]: 0.515
glycan array binding signal (z-score) [45]: -0.217
